The campaign covered roughly 44,000 compounds. About 340 (0.77%) were called active. Inconclusive results (about 5%) are left out. Calls come from the whole dose curve; as a rule, active = well fitted inhibition curve with a large enough effect; inconclusive = small, poorly fitted or top-dose-only effect; inactive = flat fitted curve, though single readings scatter. Some of the results follow.
Experiment: Acumen qHTS Assay for Inhibitors of the mTORC1 Signaling Pathway in MEF (Tsc2-/-, p53-/-) Cells: Sytravon; note: nearly all actives have a fitted effect of over 50% in size;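 for activity change, negative = inhibition: plate controls were DMSO for no effect and rapamycin for full effect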
Conditions: phospho-rpS6 immunofluorescence/PI, 24 h; series mostly up to 38.3 µM; activity change, negative = inhibition: at the top concentration
In short: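 Cell-based qHTS: Tsc2-/- p53-/- MEF, 24 h cpd, 37 °C; fix/perm, anti-phospho-S6 Alexa-488 + PI; Acumen 488 nm scan; pS6/PI ratio, % positive cells; rapamycin 7.5 nM = inhibition ref; PI count = viability.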
Potency is the fitted concentration of half-maximal effect.

Activity change, negative = inhibition, inactive:
Cc1cc(C)cc(NC2=CC(c3cccc(F)c3)N(c3cc(C)cc(C)c3)C2=O)c1 (stereo not given) -0.469%, Cc1cc(=O)n(Cc2cccc(Cl)c2)c2c1c(C)nn2-c1ccccc1 0.0126%, CCN(CC)C(=O)c1sc2c(c1C)c(=O)n(-c1ccccc1)c(=O)n2CC(=O)Nc1ccc(C)cc1C 0.771%, Cc1cccc(-n2c(=O)c3c4c(sc3n3cnnc23)CCCC4)c1 -13.4%, CCN1CCN(c2c(S(=O)(=O)c3ccc(C)c(C)c3)cnc3cc(OC)c(OC)cc23)CC1 -17.2%, CCN(CC)S(=O)(=O)c1nnc(NC(=O)COc2ccc(Cl)cc2)s1 1.44%, CCCCSc1ncnc2c1c(-c1ccccc1)cn2-c1cccc(F)c1 -4.52%, CCN(CC)CCNC(=O)c1ccc2c(c1)sc1nc(-c3ccc(F)cc3)cn12 -11%, CCOC(=O)Cn1cnc2onc(-c3ccc(F)cc3)c2c1=O -25.6%, COc1ccc(C(CNC(=O)COc2ccc(Cl)c(C)c2)N2CCOCC2)cc1 (stereo not given) -0.506%, Cc1cc(C)cc(NS(=O)(=O)c2ccc3c(c2)NC(=O)C(C)S3)c1 (stereo not given) 5.36%, CCOC(=O)c1c(C)oc2nc(C)nc(Nc3ccc(CC)cc3)c12 0.871%, CCn1c(C(=O)N2CCC(C(=O)NCCc3ccc(OC)cc3OC)CC2)cc2sccc21 -4.24%, CCc1ccc(S(=O)(=O)c2nnn3c2nc(NC2CCCCCC2)c2sccc23)cc1 -4.1%, Cc1c(C(=O)NCc2ccccc2Br)oc2c1-c1[nH]ncc1CC2 1.62%, CCOC(=O)C(CC)Sc1ccc2nnc(CCNS(=O)(=O)c3ccc(C)cc3)n2n1 (stereo not given) 7.12%, COc1cccc2c1Oc1ncccc1N(C(=O)Nc1ccc(F)c(Cl)c1)C2 0%, Cc1ccc(C)c(CN2C(=O)c3ccccc3S(=O)c3ccc(C(=O)NCc4ccccc4)cc32)c1 (stereo not given) -11.9%, CCOCCCNC(=O)C1CCC(CNS(=O)(=O)c2ccc(NC(C)=O)cc2)CC1 (stereo not given) -1.12%, COc1ccccc1Cc1nc2ccccc2[nH]c1=O -0.526%, COc1ccc(NC(=O)c2ccc(-c3nc(CSc4ccccc4)c(C)o3)cc2)cc1OC -5.67%, CCn1cc(C(=O)N2CCN(c3cccc(Cl)c3)CC2)c(=O)c2cc(S(=O)(=O)N3CCCCC3)ccc21 -2.53%, COc1ccc(C(CNC(=O)c2oc3ccc(C)cc3c2C)N2CCOCC2)cc1 (stereo not given) -1.44%, COc1ccc(OC)c(NC(=O)N2CCN(S(=O)(=O)c3ccc4c(ccn4C)c3)CC2)c1 1.95%, COc1cc(OC)cc(C(=O)Nc2ccc3nc(N4CCCCC4)cc(C)c3c2)c1 -25.4%, CC(C)Cn1c(=O)c2ccccc2n2c(CCC(=O)N3CCN(c4ccccc4F)CC3)nnc12 -0.911%, CCCn1c(-c2ccc(S(=O)(=O)N3CCOCC3)cc2)csc1=Nc1ccc(OCC)cc1 -18%, Cc1ccc2nc(-c3ccc(O)cc3)c(Nc3ccc4c(c3)OCCO4)n2c1 15.9%, CCCSCCCNC(=O)C1CCN(c2nn3cc(-c4ccc(F)cc4)nc3s2)CC1 -7.11%, O=C(NCc1ccccc1Cl)C(=O)NCC(c1cccs1)S(=O)(=O)c1cccs1 (stereo not given) -6.75%, Cc1ccc(C)n1-c1nnc(N2CCCC(C(=O)Nc3ccc(C(C)C)cc3)C2)s1 (stereo not given) -0.0452%, COC(=O)c1ccccc1NC(=O)Cn1c(=O)n(Cc2ccc(C(=O)NCc3ccc4c(c3)OCO4)cc2)c(=O)c2ccccc21 -7.2%, COc1cccc(C(=O)c2sc3nc(-c4ccccc4)cc(C(F)(F)F)c3c2N)c1 -11.2%, CCOC(=O)c1c(C)oc2ncnc(Nc3ccc(OCC)cc3)c12 -2.04%, Cc1ccc(C)c(N2C(=O)N(Cc3cc(=O)n4ccccc4n3)c3ccccc3S2(=O)=O)c1 -1.13%, O=C(CN1C(=O)CCc2cc(S(=O)(=O)N3CCOCC3)ccc21)NCc1ccc(F)cc1 0%, CCc1cccc(NC(=O)Nc2csc3c2CCCC3)c1 -3.78%, Cc1ccc(CNC(=O)c2ccc3c(c2)nc(C)n3-c2cc(C)cc(C)c2)cc1 6.92%, O=C(COc1ccccc1F)Nc1ccc(-c2nc3ccccc3s2)cc1 1.73%, COc1cccc(NC(=O)CNC(=O)Cn2c(C)cc3ccccc3c2=O)c1 -17.5%, Cc1ccc(N(CC(=O)NCCc2ccccc2)S(=O)(=O)N(C)C)cc1 -0.21%, COc1cc(C)ccc1OCCSc1nc2ccc(NC(=O)c3ccc(F)cc3)cc2s1 1.6%, Cn1ccc2cc(S(=O)(=O)N3CCC(C(=O)NCCc4ccccc4)CC3)ccc21 9.12%, CCCCOc1ccc(C(=O)Nc2ccc(-c3nc4ccccc4s3)cc2C)cc1 -9.38%, N#Cc1ccccc1NC(=O)Cn1cnc2onc(-c3cccc(F)c3)c2c1=O 0%, Nc1ncc(S(=O)(=O)NCc2ccc(Cl)cc2)cn1 1.81%, COc1ccc(Cl)cc1NC(=O)Cn1cc(C(=O)c2ccncc2)c(=O)c2cc(C)ccc21 -1.63%, CCC(Sc1nc2cc(OC)c(OC)cc2c(=O)n1CCc1ccc(Cl)cc1)C(=O)NCCOC (stereo not given) -7.13%, CCOc1ccc(-c2cc(OC(=O)c3ccccc3)c3c(C)oc(C)c3c(=O)c2)cc1 -8.34%, Cn1nnc2c(N3CCN(c4ccccc4F)CC3)ncnc21 0.286%, Cc1cc(C)cc(OCC(=O)Nc2ccc(-c3nc4ccccc4s3)cc2)c1 -2.82%, O=C(CSc1nc2ccccc2n1Cc1ccccc1F)NCc1ccccc1 0%, Cc1ccccc1C(=O)Nc1cccc(C(=O)OCc2cc(=O)n3c4c(sc3n2)CCCC4)c1 0%, Cc1ccc(-n2c(SCC(=O)NCc3ccc(F)cc3)nc3c([nH]c4ccccc43)c2=O)cc1 -13.6%, CCCCNC(=O)CSc1nc2cc3c(cc2c(=O)n1CCCCCC(=O)NCc1ccc2c(c1)OCO2)OCO3 0.194%, COc1ccc(N(CC(=O)NCCc2ccccc2)S(=O)(=O)c2ccccc2)c(OC)c1 2.29%, Cc1ccc2oc3c(c(=O)c2c1)C(c1ccccc1F)N(CCCN1CCOCC1)C3=O (stereo not given) 8.03%, COc1cc2c(cc1OC)C(COc1ccc(F)cc1)N(C(=O)Cc1ccc(F)cc1)CC2 (stereo not given) 3.29%, Cc1cc(C)cc(NC(=O)CCc2c(C)nn(-c3ccc(N4CCCC4)nn3)c2C)c1 -4.83%, Cc1ccc(Nc2c(-c3ccncc3)nc3ccc(C)cn23)cc1 -14.3%, CCOc1ccc(OCC)c(S(=O)(=O)N2CCN(c3cccc(C)c3C)CC2)c1 -4.05%, CCOC(=O)C1CCN(c2ncnc3c2nnn3C)CC1 -2.3%, Cc1ccc(CN(C(=O)COc2cccc([N+](=O)[O-])c2)c2ccccn2)cc1 -13.9%, CC(C)c1ccc(CNc2nc(-c3ccco3)nn2S(=O)(=O)c2ccc3ccccc3c2)cc1 -3.74%, Cc1cc(C)cc(N2CCn3c2nc2c3c(=O)n(Cc3ccc(Cl)cc3)c(=O)n2C)c1 5.24%, O=S(=O)(c1ccccc1)c1nc(-c2ccc(Cl)cc2Cl)oc1N1CCCCCC1 -0.031%, COc1ccc(CNC(=O)Cn2nnc(-c3ccc(S(C)(=O)=O)cc3)n2)cc1 -18.4%, COc1cccc(-c2cc(C(=O)Nc3cc(OC)c(OC)c(OC)c3)on2)c1 -1.08%, COc1cccc2c1cc1c(=O)n(CC(=O)N3CCN(c4cc(Cl)ccc4C)CC3)nc(C)n12 6.96%, O=C(CCCn1c(=O)c2cccn2c2cccnc21)NCc1ccc(F)cc1 -8.25%, CCC1CCCCN1CC(=O)N1CCCc2c1c(=O)oc1ccc(OCc3ccccc3)cc21 (stereo not given) -29.3%, CCN1CCN(c2ccc(NS(=O)(=O)c3c(C)nc4sccn4c3=O)cc2Cl)CC1 -17.2%, COc1ccc(CNC(=O)CCC(=O)N2CCSc3ccccc32)cc1 -8.94%, CCOc1ccc(-n2c(C)nc3cc(C(=O)NCCC4=CCCCC4)ccc32)cc1 1.1%, CCOC(=O)c1ccc(NC(=O)C2=C(C)Nc3nc(SCc4ccc(Cl)cc4)nn3C2c2ccc(OC)cc2)cc1 (stereo not given) -2.56%, COc1ccc(-c2nnc(SCC(=O)Nc3ccc(Cl)cc3)s2)cc1 5.73%, Cc1ccccc1NS(=O)(=O)c1ccc(Br)s1 -6.74%, COc1ccc(-c2nc3sc(CCNC(=O)c4cc(Cl)ccc4OC)c(C)n3n2)cc1 -9.24%, CN(Cc1ccccc1)S(=O)(=O)c1ccc(F)c(C(=O)Nc2cccc(Cl)c2Cl)c1 -11.8%, Cc1ccc(C(C)(C)C)c(OCC(=O)NCCc2nc3ccccc3[nH]2)c1 -1.22%, CCN(CC)c1cc2c(cc1F)c(=O)c(S(=O)(=O)c1cc(C)ccc1C)cn2Cc1ccccc1 -1.59%, Cc1cccc(CC2C(=O)Nc3ccccc32)c1 (stereo not given) -13.2%, CCOc1ccccc1-n1nnc(-c2nc(-c3ccccc3)no2)c1N 1.75%, CCOc1ccc(C2=NC(c3cccs3)=Nc3ccc(C(C)C)cc3N2)cc1 -4.87%, Cc1c(/C=C(\C#N)C(=O)Nc2cccc(Cl)c2)c2ccccc2n1Cc1ccccc1Cl 22.4%, CCOC(=O)c1cccc(NC(=O)C2CCN(S(=O)(=O)c3ccc4c(c3)oc(=O)n4C)CC2)c1 -29.5%, COc1ccc(S(=O)(=O)N(CCc2ccccc2)CC(=O)Nc2cccc(OC)c2)cc1 19.3%, CCc1ccc(C(=O)COC(=O)C(Cc2c[nH]c3ccccc23)NC(=O)c2ccc(Br)cc2)cc1 (stereo not given) 10.9%, CCOc1ccc(C2c3cc(OCC)c(OCC)cc3CC(=O)N2c2ccc(C(=O)O)cc2)cc1OCC (stereo not given) 3.67%, COc1ccccc1N1CCN(c2ncnc3c2cnn3C)CC1 10.1%, COc1ccc(CCN2C(=O)c3oc4ccc(F)cc4c(=O)c3C2c2ccc(C(C)(C)C)cc2)cc1 (stereo not given) -1.26%, CCc1cccc(C)c1NC(=O)Cn1ccn(-c2ccc(F)cc2)c(=O)c1=O 3.01%, Cc1nc2ccc(S(=O)(=O)N(C)CC(=O)Nc3ccc(Br)c(C)c3)cc2s1 8.1%, Cc1ccccc1-c1nn2c(=O)cc(CN3CCN(C(=O)c4ccc(C(C)(C)C)cc4)CC3)nc2s1 1.53%

Potency, active:
CCOC(=O)c1c(NC(=O)c2ccc(S(=O)(=O)N(CCOC)CCOC)cc2)sc2c1CC(C)(C)NC2(C)C 11.7 µM
